{"source": "PubChem BioAssay AID624296", "about": "(National Center for Advancing Translational Sciences (NCATS), 2012)", "note": "In all, about 350,000 compounds went through this assay and about 9,900 (2.8%) were called active. The shares of active, inactive and inconclusive entries below differ from those in the screen. Calls follow the shape of the dose curve; as a rule, active = well fitted activation curve with a large enough effect; inconclusive = small, poorly fitted or top-dose-only effect; inactive = no such curve, though single readings can be large or run the other way. Potencies of inconclusive entries are left out as doubtful fits. Potency is read from the fitted curve at half-maximal effect; tags tell the direction and shape of the fitted curve.", "data": [{"assay": "A quantitative high throughput screen for small molecules that induce DNA re-replication in MCF 10a normal breast cells; also: nearly all actives have a fitted effect of over 50% in size.", "settings": "MCF 10A DNA re-replication, Hoechst nuclear intensity, 48 h; series mostly up to 46.1 µM", "values": [{"smiles": "O=C(CCS(=O)(=O)c1ccccc1)Nc1ccc(-c2nc3ccccc3s2)c(O)c1", "Potency": "inactive"}, {"smiles": "COc1ccc(S(=O)(=O)N2CCc3ccccc32)cc1C(=O)Nc1cc(S(C)(=O)=O)ccc1Cl", "Potency": "inconclusive [activator, full curve, poor fit]"}, {"smiles": "CC12CCC=CC1=C(C=O)C1C2CCC2(C)C(O)CCC12", "note": "(stereo not given)", "Potency": "inconclusive [activator, single point]"}, {"smiles": "NC(=O)c1ccccc1NC(=O)/C=C/c1c(Cl)cccc1Cl", "Potency": "inconclusive [activator, partial curve, poor fit]"}, {"smiles": "CCn1c(N2CCN(C(=O)C34CC5CC(CC(C5)C3)C4)CC2)nc2ccccc21", "Potency": "inconclusive [activator, single point]"}, {"smiles": "CCOC(=O)[C@@H]1[C@H]2COc3cc(OC)ccc3[C@@H]2N2C(=O)N(c3ccccc3)C(=O)[C@]12C", "Potency": "inactive"}, {"smiles": "Cc1cc(C)c(S(=O)(=O)N2CCCCC2CCNC(=O)C(=O)NCc2ccco2)c(C)c1", "note": "(stereo not given)", "Potency": "inconclusive [activator, single point]"}, {"smiles": "O=C(Nc1cccc(Cl)c1N1CCOCC1)c1cccs1", "Potency": "inconclusive [activator, full curve, poor fit]"}, {"smiles": "CCc1ccccc1OCC(=O)N(CC)CC(=O)NCc1ccc(F)cc1", "Potency": "inconclusive [activator, full curve, poor fit]"}, {"smiles": "CCNC(=O)CC1C(=O)N(c2ccc(C)cc2)C(=O)N1CCc1sccc1C", "note": "(stereo not given)", "Potency": "inconclusive [activator, single point]"}, {"smiles": "CC[C@]12c3[nH]c4cc(CCC(=O)N(C)C)ccc4c3CCN1C(=O)[C@@H](CC(=O)NCCCN(C)C)C[C@@H]2C(=O)N1CCN(C(=O)C2CC2)CC1", "Potency": "inconclusive [activator, single point]"}, {"smiles": "NNC(=O)C(=O)Nc1ccc(Cl)c(Cl)c1", "Potency": "inconclusive [activator, full curve, poor fit]"}, {"smiles": "Fc1cccc2sc(Nc3nc4cc5c(cc4s3)OCO5)nc12", "Potency": "active: 10.3 µM"}, {"smiles": "COc1ccc(/C=C2\\CCC/C(=C\\C=N\\N(C)C)C2=O)cc1", "Potency": "active: 8.2 µM"}, {"smiles": "Cc1ccc(-c2nc3ccccn3c2Nc2ccccc2)o1", "Potency": "inconclusive [activator, partial curve, poor fit]"}, {"smiles": "COc1ccc(C2=NN(CCC(=O)NCc3cccs3)C(=O)CC2)cc1", "Potency": "inactive"}, {"smiles": "CCN1CCN(C(=O)c2ccc3c(c2)c(C)c(C)n3Cc2ccccc2)CC1", "Potency": "inconclusive [activator, partial curve]"}, {"smiles": "CCOc1ccc(CCN2C(=O)C(=O)N([C@@H](CC(C)C)CN3CCC[C@@H]3CN3C(=O)C(=O)NC[C@@H]3Cc3ccccc3)C[C@@H]2CC(C)C)cc1", "Potency": "inconclusive [activator, single point]"}, {"smiles": "NC(=O)c1cccc(CS(=O)(=O)c2ccc(Cl)cc2)c1", "Potency": "inactive"}, {"smiles": "COC(=O)C1=C(C)NC(=S)N(C(C)=O)C1c1ccccc1", "note": "(stereo not given)", "Potency": "inconclusive [activator, single point]"}, {"smiles": "Cc1cccc(N(Cc2cc3ccc(C)cc3[nH]c2=O)S(=O)(=O)c2ccccc2)c1", "Potency": "inconclusive [activator, single point]"}, {"smiles": "N#Cc1cn(CCOc2ccc(F)cc2)c2ccccc12", "Potency": "inconclusive [activator, partial curve, poor fit]"}, {"smiles": "COc1ccc(CCNC(=O)COC(=O)Cc2c[nH]c3ccccc23)cc1OC", "Potency": "inactive"}, {"smiles": "c1cc(-c2noc(CC3CCCCC3)n2)ccn1", "Potency": "inconclusive [activator, full curve, poor fit]"}, {"smiles": "N#Cc1c(-c2ccccc2)c(-c2ccccc2)nn(CC(=O)NNC(=O)Nc2ccc(Cl)cc2)c1=O", "Potency": "inconclusive [activator, partial curve]"}, {"smiles": "Clc1cccc(CSc2nnc(-c3ccccn3)n2Cc2ccco2)c1", "Potency": "inconclusive [activator, single point]"}, {"smiles": "COC(=O)c1ccccc1CC1Cc2cc3c(cc2C1=O)CCC3", "note": "(stereo not given)", "Potency": "inconclusive [activator, partial curve]"}, {"smiles": "COc1ccc(Cn2nnc(C(=O)Nc3ccc4c(c3)OCCO4)c2N)cc1Br", "Potency": "inconclusive [activator, partial curve, poor fit]"}, {"smiles": "CCC1([N+](=O)[O-])COC(C=Cc2ccccc2)OC1", "note": "(stereo not given)", "Potency": "inactive"}, {"smiles": "CC(C)OC(=O)c1ccc(NC(=O)c2cncc(Br)c2)cc1", "Potency": "inconclusive [activator, full curve, poor fit]"}, {"smiles": "CC(NC(=O)c1ccc(F)cc1)C(=O)NC1=NCCS1", "note": "(stereo not given)", "Potency": "inactive"}, {"smiles": "CCOC(=O)C1=C(CC)Nc2ccccc2N/C1=N\\S(=O)(=O)c1cc(Br)ccc1Br", "Potency": "inconclusive [activator, partial curve, poor fit]"}, {"smiles": "CCOC(=O)C1=C(N)OC2=C(C(=O)CC(C)(C)C2)C1c1cc(CSc2nnnn2C)cs1", "note": "(stereo not given)", "Potency": "inactive"}, {"smiles": "Cc1ccc(C(=O)COC(=O)c2cn(-c3ccccc3)nc2-c2ccccc2)cc1[N+](=O)[O-]", "Potency": "inconclusive [activator, partial curve, poor fit]"}, {"smiles": "COc1ccc(S(=O)(=O)N2CCC(N3CCCC3)CC2)cc1", "Potency": "inconclusive [activator, partial curve, poor fit]"}, {"smiles": "CCOC(=O)C1(Cc2cccc(OC)c2)CCN(Cc2cccc(OC)c2O)CC1", "Potency": "inconclusive [activator, single point]"}, {"smiles": "COc1ccc(C(=O)NC(Nc2ccccc2)C(Cl)(Cl)Cl)cc1", "note": "(stereo not given)", "Potency": "inconclusive [activator, single point]"}, {"smiles": "c1ccc(-c2ccncc2)nc1", "Potency": "inactive"}, {"smiles": "Cc1sc2nc(CSc3nc4ccccc4c(=O)n3CCCN3CCOCC3)[nH]c(=O)c2c1C", "Potency": "inconclusive [activator, single point]"}, {"smiles": "CCOC(=O)c1ccc(NC(=O)c2nc[nH]c2C(=O)N[C@@H](Cc2ccccc2)C(=O)OC(C)(C)C)cc1", "Potency": "inactive"}, {"smiles": "N#CC1=C(N)Oc2cc(N)ccc2C1c1cccnc1", "note": "(stereo not given)", "Potency": "inconclusive [activator, single point]"}, {"smiles": "COc1ccc(C2/C=C\\CN(S(=O)(=O)c3ccc(C)cc3)CC(=O)N2Cc2cccc(F)c2)cc1", "note": "(stereo not given)", "Potency": "inconclusive [activator, partial curve, poor fit]"}, {"smiles": "COc1cc2c(cc1OC)C(=O)N1[C@H]3c4cc(Cl)ccc4OC[C@@H]3[C@H](c3ccccc3)[C@]1(C)C(=O)N2", "Potency": "active: 9.2 µM"}, {"smiles": "COc1ccccc1C(=O)c1c(C)c(CCC#N)n2ccccc12", "Potency": "inactive"}, {"smiles": "COc1cc2c(cc1OC)CN(C(=O)Nc1ccccc1Cl)CC2", "Potency": "inactive"}, {"smiles": "COc1ccc2c3c(cccc13)C(=O)N(O)C2=O", "Potency": "inconclusive [activator, full curve, poor fit]"}, {"smiles": "CC(C)(C)c1ccc(Cn2nnc3c(=O)[nH]c(C4CCCN(C(=O)c5cccs5)C4)nc32)cc1", "note": "(stereo not given)", "Potency": "inconclusive [activator, single point]"}, {"smiles": "CC(/C=C1\\N=C(SCc2ccccc2)SC1=O)=C\\c1ccccc1", "Potency": "inconclusive [activator, partial curve, poor fit]"}, {"smiles": "CCn1c(SCC(=O)N2CCCCCC2)nc2ccccc2c1=O", "Potency": "inconclusive [activator, partial curve, poor fit]"}, {"smiles": "COc1ccc(O)c(/C=N/NC(=O)c2ccc(CSc3nc(C)cc(C)n3)cc2)c1", "Potency": "inconclusive [activator, single point]"}, {"smiles": "Cc1ccc(/C=C2\\SC(=S)N(C3CCS(=O)(=O)C3)C2=O)cc1", "note": "(stereo not given)", "Potency": "inactive"}, {"smiles": "CC(=O)c1ccc(Nc2cc(C)nc3c(C)cc(C)cc23)cc1", "Potency": "inconclusive [activator, partial curve, poor fit]"}, {"smiles": "CC(C)(Oc1ccc(Br)cc1)C(=O)N1CCc2ccccc21", "Potency": "inconclusive [activator, single point]"}, {"smiles": "COc1ccc(C(=O)O)cc1NC(=S)NC(=O)C(c1ccccc1)c1ccccc1", "Potency": "inconclusive [activator, single point]"}, {"smiles": "Cc1c(C)c2ccc(OCC(=O)Nc3ccc(S(N)(=O)=O)cc3)c(C)c2oc1=O", "Potency": "active: 18.4 µM"}, {"smiles": "CC(C)NC[C@H]1CCc2cc(CO)c([N+](=O)[O-])cc2N1", "Potency": "inactive"}, {"smiles": "CCCN(N=Nc1cccc([N+](=O)[O-])c1)c1cccc([N+](=O)[O-])c1", "Potency": "inconclusive [activator, single point]"}, {"smiles": "CN(C(=O)c1sc2nc(N3CCOCC3)c3c(c2c1N)CCCC3)c1ccccc1", "Potency": "inconclusive [activator, single point]"}, {"smiles": "CCc1cc2cccc(C)c2nc1SCC(=O)Nc1cc(C)on1", "Potency": "inconclusive [activator, partial curve, poor fit]"}, {"smiles": "CCCN(CC(=O)Nc1ccccc1C)C(=O)c1ccc(N2CCOCC2)c([N+](=O)[O-])c1", "Potency": "inactive"}, {"smiles": "CCN1CCN(CC(O)COc2ccc3c(c2)CCC3)CC1", "note": "(stereo not given)", "Potency": "inconclusive [activator, partial curve]"}, {"smiles": "CCC(C(=O)O)n1c2ccccc2c2cn[nH]c(=O)c21", "note": "(stereo not given)", "Potency": "inactive"}, {"smiles": "CCC(C)OC(=O)C1=C(C)NC(=O)NC1c1ccc(F)cc1", "note": "(stereo not given)", "Potency": "inconclusive [activator, partial curve, poor fit]"}, {"smiles": "CCOC(=O)c1c(CSCc2ccccc2)oc2ccc(O)c(CN(C)C)c12", "Potency": "inactive"}, {"smiles": "O=C(NC1C2CC3CC(C2)CC1C3)c1ccc(N2CCNCC2)c([N+](=O)[O-])c1", "note": "(stereo not given)", "Potency": "inconclusive [activator, partial curve, poor fit]"}]}]}
